# Test results published in PubChem BioAssay (NCATS).
# “And” between values parts separate entries of the source, which are not always exact repeats. Equal values may be shown once. The shares of active, inactive and inconclusive entries below differ from those in the screen. Potencies beside an inconclusive call are fits to weak or partial responses and may not hold up. The source made the active and inactive calls. The call rests on the fitted dose curve; in most records, active means well fitted curve in the direction sought with a large enough effect; inconclusive means small, poorly fitted or top-dose-only effect, or another doubt; inactive means no such curve, though single readings can be large; an effect the other way counts as inactive or inconclusive.
# Columns and labels:
# MKL-1 = assay: qHTS assay to identify novel small-molecules to repurpose for Merkel cell carcinoma treatment (AID 1296009); details: MCC and control cell lines, CellTiter-Glo viability, 72 h; activity change, negative = cytotoxicity: at 46 µM (top of the series) unless noted; further: nearly all actives have a fitted effect of over 60% in size; on activity change, negative = cytotoxicity: on the % scale 0 is the no-effect control and ±100 the full control effect
# Method in brief: (§1)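 qHTS format: cells treated with library compounds in DMSO across 8 (NPC) or 11 (MIPE) concentrations. Readout after 72 hr at 37 degree celsius was CellTiter-Glo luminescence.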
# MKL-2 = assay: as above; details: MCC and control cell lines, CellTiter-Glo viability, 72 h; series mostly up to 46 µM
# Method in brief: as §1
# WaGa = assay: as above; details: MCC and control cell lines, CellTiter-Glo viability, 72 h; series mostly up to 46 µM
# Method in brief: as §1
# JEG-3 = assay: Primary qHTS to identify gynecologic anti-cancer compounds using libraries of approved drugs and bioactive compounds (AID 1345084); details: Gynecologic cancer cell panel viability, ATPlite luminescence, 48 h; series mostly up to 57.5 µM; further: nearly all actives have a fitted effect of over 55% in size; on activity change, negative = cytotoxicity: on the % scale 0 is the no-effect control and ±100 the full control effect
# Method in brief: (§2)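 48 h compound exposure at 37 C, 5% CO2; five-point qHTS. ATPlite luminescence readout of cell ATP.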
# PC49 = assay: qHTS profiling for inhibitors of Plasmodium falciparum proliferation (AID 504749); further: nearly all actives have a fitted effect of over 60% in size; details: P. falciparum in erythrocytes, SYBR Green DNA, 72 h; series mostly up to 28.7 µM
# Method in brief: (§3)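 Parasite proliferation within erythrocytes, 72 h exposure. Endpoint: SYBR Green I fluorescence after overnight lysis at room temperature. Controls: 0.29 uM artemisinin, DMSO.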
# TAB109 = assay: as above; details: P. falciparum in erythrocytes, SYBR Green DNA, 72 h; series mostly up to 28.7 µM
# Method in brief: as §3
# TAB113 = assay: as above; details: P. falciparum in erythrocytes, SYBR Green DNA, 72 h; series mostly up to 28.7 µM
# Method in brief: as §3
# CAOV3 = assay: Primary qHTS to identify gynecologic anti-cancer compounds using libraries of approved drugs and bioactive compounds (AID 1345084); details: Gynecologic cancer cell panel viability, ATPlite luminescence, 48 h; series mostly up to 57.5 µM; further: nearly all actives have a fitted effect of over 55% in size; on activity change, negative = cytotoxicity: on the % scale 0 is the no-effect control and ±100 the full control effect
# Method in brief: as §2
# W2 = assay: qHTS profiling for inhibitors of Plasmodium falciparum proliferation (AID 504749); further: nearly all actives have a fitted effect of over 60% in size; details: P. falciparum in erythrocytes, SYBR Green DNA, 72 h; series mostly up to 28.7 µM
# Method in brief: as §3
# OV90 = assay: Primary qHTS to identify gynecologic anti-cancer compounds using libraries of approved drugs and bioactive compounds (AID 1345084); details: Gynecologic cancer cell panel viability, ATPlite luminescence, 48 h; series mostly up to 57.5 µM; further: nearly all actives have a fitted effect of over 55% in size
# Method in brief: as §2
# UISO = assay: qHTS assay to identify novel small-molecules to repurpose for Merkel cell carcinoma treatment (AID 1296009); details: MCC and control cell lines, CellTiter-Glo viability, 72 h; activity change, negative = cytotoxicity: at 46 µM (top of the series) unless noted; further: nearly all actives have a fitted effect of over 60% in size; on activity change, negative = cytotoxicity: on the % scale 0 is the no-effect control and ±100 the full control effect
# Method in brief: as §1
# C33A = assay: Primary qHTS to identify gynecologic anti-cancer compounds using libraries of approved drugs and bioactive compounds (AID 1345084); details: Gynecologic cancer cell panel viability, ATPlite luminescence, 48 h; series mostly up to 57.5 µM; further: nearly all actives have a fitted effect of over 55% in size
# Method in brief: as §2
# CASKI = assay: as above; details: Gynecologic cancer cell panel viability, ATPlite luminescence, 48 h; series mostly up to 57.5 µM
# Method in brief: as §2
# Hek293T = assay: as above; details: Gynecologic cancer cell panel viability, ATPlite luminescence, 48 h, control line for the selectivity index; series mostly up to 57.5 µM
# Method in brief: as §2
# Es-2 = assay: as above; details: Gynecologic cancer cell panel viability, ATPlite luminescence, 48 h; series mostly up to 57.5 µM
# Method in brief: as §2
# HeLa = assay: as above; details: Gynecologic cancer cell panel viability, ATPlite luminescence, 48 h; series mostly up to 57.5 µM
# Method in brief: as §2
# SC27B = assay: qHTS profiling for inhibitors of Plasmodium falciparum proliferation (AID 504749); further: nearly all actives have a fitted effect of over 60% in size; details: P. falciparum in erythrocytes, SYBR Green DNA, 72 h; series mostly up to 28.7 µM
# Method in brief: as §3
# TAB165 = assay: as above; details: P. falciparum in erythrocytes, SYBR Green DNA, 72 h; series mostly up to 28.7 µM
# Method in brief: as §3
# Potency means the concentration at half of the fitted maximal effect; tags describe the fitted curve by direction and shape.
compound,measurement,setting,value
COC1=C[C@@H]2[C@@H]3Cc4ccc(OC)c(O)c4[C@]2(CCN3C)CC1=O,Potency,MKL-1,inactive
same,Potency,MKL-2,inactive
same,Potency,WaGa,"inconclusive: 23.5 µM [inhibitor, single point]"
same,Potency,JEG-3,inactive
O=C(CCl)c1ccc(Cl)cc1Cl,Potency,MKL-1,"inconclusive: 26.6 µM [inhibitor, single point]"
same,Potency,MKL-2,"inconclusive: 33.5 µM [inhibitor, single point]"
same,Potency,WaGa,"inconclusive: 33.5 µM [inhibitor, single point]"
CCOC(=O)CC(SP(=S)(OC)OC)C(=O)OCC (configuration not stated),Potency,PC49,inactive
same,Potency,TAB109,inactive
same,Potency,TAB113,inactive
same,Potency,MKL-1,"inconclusive: 24.3 µM [inhibitor, single point]"
same,Potency,MKL-2,"inconclusive: 21.7 µM [inhibitor, partial curve]"
same,Potency,WaGa,"inconclusive: 30.6 µM [inhibitor, partial curve, poor fit]"
same,Potency,CAOV3,inactive
COC(=O)c1cncn1C(C)c1ccccc1 (configuration not stated),Potency,W2,"inconclusive: 0.0338 µM [inhibitor, full curve, poor fit]"
same,Potency,MKL-1,inactive
same,Potency,MKL-2,inactive
same,Potency,CAOV3,inactive
same,Potency,JEG-3,inactive
COc1ccc2c3c1O[C@H]1[C@H](O)CC[C@H]4[C@@H](C2)N(C)CC[C@@]341,Potency,MKL-1,"inconclusive: 0.003 µM [inhibitor, full curve]"
same,Potency,MKL-2,inactive
same,Potency,OV90,inactive
COc1ccc2c(c1OC)CN1CCc3cc4c(cc3C1C2)OCO4 (configuration not stated),Potency,MKL-1,"inconclusive: 23.5 µM [inhibitor, single point]"
same,Potency,MKL-2,"inconclusive: 2.99 µM [inhibitor, full curve] and active: 20.9 µM"
same,Potency,UISO,"inconclusive: 26.6 µM [inhibitor, single point] and inconclusive: 23.5 µM [inhibitor, single point]"
same,Potency,C33A,"inconclusive: 10 µM [cytotoxic, partial curve, poor fit]"
same,Potency,CAOV3,inactive
same,Potency,CASKI,"inconclusive: 39.8 µM [cytotoxic, single point]"
same,Potency,Hek293T,"inconclusive: 25.1 µM [cytotoxic, single point]"
CN1CC[C@]23c4c5ccc(O)c4O[C@H]2[C@@H](O)C=C[C@H]3[C@H]1C5,Potency,MKL-1,"inconclusive: 27 µM [inhibitor, single point]"
same,Potency,MKL-2,"inconclusive: 38.2 µM [inhibitor, partial curve]"
same,Potency,UISO,"inconclusive: 53.9 µM [inhibitor, single point]"
CCCCCCCCc1ccc(O)cc1,Potency,MKL-1,"inconclusive: 34.7 µM [inhibitor, single point]"
same,Potency,UISO,"inconclusive: 21.9 µM [inhibitor, partial curve]"
same,Potency,C33A,active: 25.1 µM
Oc1ccc2c3c1O[C@H]1[C@@H](O)C=C[C@H]4[C@@H](C2)NCC[C@@]341,Potency,MKL-1,"inconclusive: 50 µM [inhibitor, partial curve]"
same,Potency,MKL-2,"inconclusive: 25 µM [inhibitor, partial curve]"
same,Potency,CAOV3,inactive
O=C1c2ccccc2C(=O)C1C(=O)C(c1ccccc1)c1ccccc1,Potency,TAB109,"inconclusive: 2.51 µM [inhibitor, single point]"
same,Potency,TAB113,inactive
same,Potency,W2,"inconclusive: 13.5 µM [inhibitor, partial curve]"
same,Potency,MKL-1,"inconclusive: 26.6 µM [inhibitor, single point]"
same,Potency,MKL-2,"inconclusive: 18.8 µM [inhibitor, partial curve, poor fit]"
CC1Sc2c(C(=O)O)c(=O)c3cc(F)c(N4CCNCC4)cc3n21 (configuration not stated),Potency,MKL-1,inactive
same,Potency,WaGa,"inconclusive: 26.6 µM [inhibitor, single point]"
C=CCN1CC[C@]23c4c5ccc(O)c4O[C@H]2C(=O)CC[C@@]3(O)[C@H]1C5,Potency,MKL-1,inactive
same,Potency,MKL-2,inactive
same,Potency,Hek293T,inactive
same,Potency,JEG-3,inactive
same,Potency,OV90,inactive
Nc1ccc(Cl)cc1N,Potency,MKL-1,"inconclusive: 24.3 µM [inhibitor, partial curve]"
same,Potency,MKL-2,"inconclusive: 12.2 µM [inhibitor, full curve]"
same,Potency,WaGa,"inconclusive: 54.5 µM [inhibitor, partial curve, poor fit]"
same,Potency,C33A,"inconclusive: 31.6 µM [cytotoxic, single point]"
same,Potency,CASKI,"inconclusive: 35.5 µM [cytotoxic, single point]"
same,Potency,Hek293T,inactive
same,Potency,OV90,"inconclusive: 63.1 µM [cytotoxic, partial curve, poor fit]"
COc1ccc(Cc2nccc3cc(OC)c(OC)cc23)cc1OC,Potency,MKL-1,"inconclusive: 23.7 µM [inhibitor, single point]"
same,Potency,MKL-2,"inconclusive: 9.44 µM [inhibitor, partial curve]"
same,Potency,UISO,"inconclusive: 15 µM [inhibitor, single point]"
same,Potency,WaGa,"inconclusive: 8.41 µM [inhibitor, partial curve]"
same,Potency,C33A,"inconclusive: 39.8 µM [cytotoxic, single point]"
same,Potency,CASKI,"inconclusive: 17.8 µM [cytotoxic, partial curve, poor fit]"
same,Potency,Es-2,"inconclusive: 20 µM [cytotoxic, single point]"
same,Potency,HeLa,"inconclusive: 3.16 µM [cytotoxic, full curve]"
same,Potency,Hek293T,"inconclusive: 8.91 µM [cytotoxic, partial curve]"
same,Potency,JEG-3,"inconclusive: 28.2 µM [cytotoxic, single point]"
same,Potency,OV90,active: 11.2 µM
O=C(NC(=O)c1c(F)cccc1F)Nc1cc(Cl)c(OC(F)(F)C(F)C(F)(F)F)cc1Cl (configuration not stated),Potency,PC49,"inconclusive: 11.2 µM [inhibitor, single point]"
same,Potency,SC27B,"inconclusive: 8.91 µM [inhibitor, single point]"
same,Potency,TAB109,"inconclusive: 11.2 µM [inhibitor, single point]"
same,Potency,TAB113,active: 11.2 µM
same,Potency,TAB165,"inconclusive: 11.2 µM [inhibitor, single point]"
same,Potency,W2,"inconclusive: 19 µM [inhibitor, single point]"
same,Potency,MKL-1,inactive
same,Potency,MKL-2,"inconclusive: 15 µM [inhibitor, single point]"
same,Potency,Hek293T,"inconclusive: 39.8 µM [cytotoxic, single point]"
COc1cccc(C(=O)CCN[C@@H](C)[C@H](O)c2ccccc2)c1,Potency,MKL-1,"inconclusive: 21.1 µM [inhibitor, single point]"
same,Potency,UISO,"inconclusive: 29.9 µM [inhibitor, single point]"
same,Potency,WaGa,"inconclusive: 33.5 µM [inhibitor, single point]"
same,Potency,OV90,"inconclusive: 12.6 µM [cytotoxic, partial curve, poor fit]"
C=CCC1=C(C)C(OC(=O)C2C(C=C(C)C)C2(C)C)CC1=O (configuration not stated),Potency,MKL-1,"inconclusive: 48.6 µM [inhibitor, partial curve]"
same,Potency,MKL-2,"inconclusive: 34.4 µM [inhibitor, partial curve, poor fit]"
same,Potency,UISO,"inconclusive: 61.1 µM [inhibitor, partial curve, poor fit]"
same,Potency,C33A,inactive
same,Potency,CAOV3,"inconclusive: 28.2 µM [cytotoxic, single point]"
C[C@]12CC[C@@H]3c4ccc(OC(=O)N(CCCl)CCCl)cc4CC[C@H]3[C@@H]1CC[C@@H]2OP(=O)(O)O,Potency,MKL-1,inactive
same,Potency,MKL-2,inactive
C[C@]12CCC(=O)C=C1CC[C@@H]1[C@H]3CC[C@](C)(O)[C@@]3(C)CC[C@@H]12,"activity change, negative = cytotoxicity",MKL-1,inconclusive: -31.6% [inhibitor] [at 92.7 µM]
same,Potency,MKL-2,"inconclusive: 21.9 µM [inhibitor, partial curve]"
same,Potency,UISO,"inconclusive: 34.7 µM [inhibitor, partial curve, poor fit]"
same,Potency,WaGa,"inconclusive: 69.2 µM [inhibitor, partial curve, poor fit]"
same,Potency,C33A,inactive
same,Potency,CASKI,"inconclusive: 70.8 µM [cytotoxic, partial curve, poor fit]"
same,Potency,Hek293T,"inconclusive: 63.1 µM [cytotoxic, single point]"
same,Potency,OV90,"inconclusive: 28.2 µM [cytotoxic, partial curve]"
Cn1c(CCCC(=O)O)nc2cc(N(CCCl)CCCl)ccc21,Potency,SC27B,inactive
same,Potency,TAB109,"inconclusive: 2.51 µM [inhibitor, single point]"
same,Potency,W2,"inconclusive: 21.3 µM [inhibitor, partial curve, poor fit]"
same,Potency,MKL-1,"inconclusive: 29.9 µM [inhibitor, single point]"
same,Potency,MKL-2,"inconclusive: 23.7 µM [inhibitor, single point] and inconclusive: 14.8 µM [inhibitor, partial curve]"
same,Potency,UISO,"inconclusive: 33.5 µM [inhibitor, single point]"
O=c1cccc2n1CC1CNC[C@H]2C1,Potency,MKL-1,active: 14.8 µM
same,Potency,MKL-2,active: 2.64 µM
same,Potency,WaGa,active: 2.35 µM
CCCCCC[C@H]1C(=O)O[C@H](C)[C@H](NC(=O)c2cccc(NC=O)c2O)C(=O)O[C@@H](C)[C@@H]1OC(=O)CC(C)C,Potency,MKL-1,"inconclusive: 3.32 µM [inhibitor, full curve]"
same,Potency,MKL-2,active: 4.69 µM
Oc1ccc2[nH]cc(CCCCN3CC=C(c4ccccc4)CC3)c2c1,Potency,PC49,"inconclusive: 12.6 µM [inhibitor, single point]"
same,Potency,SC27B,"inconclusive: 10 µM [inhibitor, single point]"
same,Potency,TAB109,"inconclusive: 10 µM [inhibitor, single point]"
same,Potency,TAB113,"inconclusive: 17.8 µM [inhibitor, single point]"
same,Potency,TAB165,active: 11.2 µM
same,Potency,MKL-1,active: 8.41 µM
same,Potency,MKL-2,active: 5.96 µM
same,Potency,WaGa,active: 2.99 µM
same,Potency,CAOV3,"inconclusive: 0.447 µM [rising, partial curve, poor fit]"
same,Potency,Es-2,inactive
same,Potency,Hek293T,"inconclusive: 25.1 µM [cytotoxic, single point]"
COc1ccc2c(c[n+](C)c3c4cc5c(cc4ccc23)OCO5)c1OC,Potency,MKL-1,active: 2.35 µM
same,Potency,MKL-2,active: 0.743 µM
same,Potency,UISO,"inconclusive: 26.4 µM [inhibitor, single point]"
same,Potency,WaGa,active: 3.32 µM
